Results: PubChem BioAssay (NCATS)
The inconclusive results got no clear call from the source; some entries with a clear call stand among them for comparison. For some of these results: Where the call is inconclusive, the potency comes from a doubtful curve fit. Activity calls are given as the source filed them. Unless noted, the call rests on the fitted dose curve; in most records, active means well fitted curve in the direction sought with a large enough effect; inconclusive means small, poorly fitted or top-dose-only effect, or another doubt; inactive means no such curve, though single readings can be large; an effect the other way counts as inactive or inconclusive.

Tests used:
[1] = qHTS of pediatric cancer cell lines to identify multiple opportunities for drug repurposing: Primary screen for SK-N-SH cells (AID 1347098); further: nearly all actives have a fitted effect of over 65% in size; further: potency means the concentration at half of the fitted maximal effect;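 on activity change, negative = cytotoxic: DMSO served as neutral control and bortezomib at 2.3 µM as positive control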
Method in brief: (§1)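 Cells (500-1,000/well) rested 5 h, then received compounds for 48 h; metabolically active cells were measured by CellTiter-Glo luminescence. Final concentrations spanned up to 46 µM (MIPE, 11-point) or 0.59 nM-46 µM (NPC, 8-point) in primary screens, 11-point in follow-ups.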

UISO = assay: qHTS assay to identify novel small-molecules to repurpose for Merkel cell carcinoma treatment (AID 1296009); settings: MCC and control cell lines, CellTiter-Glo viability, 72 h; activity change, negative = cytotoxicity: at 46 µM (top of the series); further: nearly all actives have a fitted effect of over 60% in size; further: potency means the concentration at half of the fitted maximal effect
Method in brief: (§2)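 Luminescence from CellTiter-Glo, read 10 min after addition at room temperature, reported viability following a 72 hr, 37 degree celsius treatment with NPC or MIPE compounds in titration; values normalized to plate controls.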

WaGa = assay: as above; settings: MCC and control cell lines, CellTiter-Glo viability, 72 h; series mostly up to 46 µM
Method in brief: as §2

[2] = qHTS of pediatric cancer cell lines to identify multiple opportunities for drug repurposing: Primary screen for BT-37 cells (AID 1347094); further: potency means the concentration at half of the fitted maximal effect
Method in brief: (§3)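 Cells seeded at 500-1,000 cells/well in growth media, rested 5 hours at 37 degrees C, 5% CO2, then dosed; MIPE compounds at 11-point (from 0.78 nM) and NPC at 8-point (from 0.59 nM) final concentrations. Viability by CellTiter-Glo luminescence after 48 hours.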

[3] = qHTS of pediatric cancer cell lines to identify multiple opportunities for drug repurposing: Primary screen for LAN-5 cells (AID 1347100); further: potency means the concentration at half of the fitted maximal effect
Method in brief: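 Cells (500-1,000/well) in growth media were settled 5 h at 37 degrees C, then given compounds for 48 h. Viability was read as CellTiter-Glo luminescence. Primary runs used MIPE at 11 points (0.78 nM-46 µM) and NPC at 8 points (0.59 nM-46 µM); follow-ups used 11 points.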

[4] = qHTS of pediatric cancer cell lines to identify multiple opportunities for drug repurposing: Primary screen for BT-12 cells (AID 1347101); further: nearly all actives have a fitted effect of over 25% in size; further: potency means the concentration at half of the fitted maximal effect
Method in brief: as §1

[5] = qHTS of pediatric cancer cell lines to identify multiple opportunities for drug repurposing: Primary screen for OHS-50 cells (AID 1347103); further: nearly all actives have a fitted effect of over 40% in size; further: potency means the concentration at half of the fitted maximal effect
Method in brief: as §1

MKL-2 = assay: qHTS assay to identify novel small-molecules to repurpose for Merkel cell carcinoma treatment (AID 1296009); settings: MCC and control cell lines, CellTiter-Glo viability, 72 h; activity change, negative = cytotoxicity: at 46 µM (top of the series); further: nearly all actives have a fitted effect of over 60% in size; further: potency means the concentration at half of the fitted maximal effect
Method in brief: as §2

[6] = qHTS of pediatric cancer cell lines to identify multiple opportunities for drug repurposing: Primary screen for A673 cells (AID 1347092); settings: A673 Ewing sarcoma viability, CellTiter-Glo ATP luminescence, 48 h; activity change, negative = cytotoxic: at 46 µM (top of the series); further: nearly all actives have a fitted effect of over 45% in size; further: potency means the concentration at half of the fitted maximal effect
Method in brief: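 Cells are plated, rested 5 h, dosed by pintool, incubated 48 h, then lysed with CellTiter-Glo and read by luminescence. DMSO is the neutral control; bortezomib at 2.3 uM final is the positive control.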

[7] = Drug repurposing screens with cells derived from glioblastoma tumor samples (AID 1345199); settings: GBM patient neurospheres viability, ATP luminescence, 48 h; further: nearly all actives have a fitted effect of over 40% in size; further: potency means the concentration at half of the fitted maximal effect
Method in brief: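 Primary testing used CD133+ neurospheres from four GBM patients, seven concentrations, 48 h exposure and ATP-based viability; confirmation added three slower-growing patient lines.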

[8] = qHTS of pediatric cancer cell lines to identify multiple opportunities for drug repurposing: Primary screen for NB-EBc1 cells (AID 1347095); further: potency means the concentration at half of the fitted maximal effect
Method in brief: as §3

[9] = qHTS of pediatric cancer cell lines to identify multiple opportunities for drug repurposing: Primary screen for RD cells (AID 1347104); settings: RD rhabdomyosarcoma viability, CellTiter-Glo luminescence, 48 h; activity change, negative = cytotoxic: at 46 µM (top of the series); further: nearly all actives have a fitted effect of over 55% in size; further: potency means the concentration at half of the fitted maximal effect
Method in brief: as §3

[10] = A High-Content qHTS Against Drug Library for the Identification of Small Molecules that Inhibit DYT1 Early Onset Primary Dystonia-Associated Cell Pathology (AID 1645839; calls by dose curve; further: potency means the concentration at half of the fitted maximal effect)
Method in brief: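 Induced EGFP-delE TorsinA cells are imaged after 48 h of compound treatment. Punctate fusion-protein distribution gives the %pathology value, while nuclei counts flag toxicity. Wild-type EGFP-hTOR1A cells define the normal pattern.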

[11] = qHTS of pediatric cancer cell lines to identify multiple opportunities for drug repurposing: Primary screen for DAOY cells (AID 1347090); settings: DAOY medulloblastoma viability, CellTiter-Glo luminescence, 48 h; activity change, negative = cytotoxic: at 46 µM (top of the series); further: nearly all actives have a fitted effect of over 55% in size
Method in brief: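 Eight- or eleven-point concentration series, 48 h treatment at 37 degrees C in growth media; readout CellTiter-Glo luminescence. Potency and efficacy were taken from the concentration-response curves.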

[12] = qHTS of pediatric cancer cell lines to identify multiple opportunities for drug repurposing: Primary screen for Rh41 cells (AID 1347108);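 further: luminescence drop marks cytotoxic hits; nearly all actives have a fitted effect of over 70% in size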
Method in brief: as §3

Es-2 = assay: Primary qHTS to identify gynecologic anti-cancer compounds using libraries of approved drugs and bioactive compounds (AID 1345084); settings: Gynecologic cancer cell panel viability, ATPlite luminescence, 48 h; series mostly up to 57.5 µM; further: nearly all actives have a fitted effect of over 55% in size
Method in brief: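 Cells, 1,000 per well, plated 16 h, then exposed 48 h at 37 C to compounds. Viability by ATPlite luminescence after 15 min at room temperature.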

[13] = Potency: tumour line A unless noted, activity, negative = cell killing: at 46 µM (top of the series), tumour line A unless noted

Measured: Potency
Tags describe the fitted curve by direction and shape.

CCCCCCCCCCCCCCCCCCCCCCO
inactive: UISO | WaGa
inconclusive: [1] 38.3 µM [cytotoxic, single point]

Cc1nc2n(c(=O)c1CCN1CCC(C(=O)c3ccc(F)cc3)CC1)CCS2
inconclusive: [4] 19.5 µM [cytotoxic, single point] | [5] 15.5 µM [cytotoxic, partial curve] | MKL-2 = 11.9 µM [inhibitor, partial curve, poor fit] | WaGa 33.5 µM [inhibitor, single point]
inactive: [2] | [3]

CC(=O)Nc1ccc(S(=O)(=O)Nc2ccc([N+](=O)[O-])cc2)cc1
inconclusive: [1] 17.2 µM [cytotoxic, partial curve, poor fit] | [3] 29.9 µM [cytotoxic, single point] | [7]; [13] 39.8 µM [inhibitor, partial curve, poor fit] | WaGa 33.5 µM [inhibitor, single point]
inactive: [6] | [5]

CN(C)CCC=C1c2ccccc2CCc2ccccc21
inconclusive: [6] 33.5 µM [cytotoxic, single point] | [2] 34.7 µM [cytotoxic, single point] | [8] 15 µM [cytotoxic, partial curve] | [1] 34.4 µM [cytotoxic, single point] | [3] 21.1 µM [cytotoxic, single point] | [4] 38.9 µM [cytotoxic, single point] | [5] 19.5 µM [cytotoxic, single point] | [9] 26.6 µM [cytotoxic, single point] | [10] 35.5 µM [inhibitor, single point] | MKL-2 = 23.7 µM [inhibitor, single point] | WaGa 26.6 µM [inhibitor, partial curve, poor fit]

COC(=O)N/N=C/c1c[n+]([O-])c2ccccc2[n+]1[O-]
inconclusive: [1] 0.001 µM [cytotoxic]
inactive: [6] | [3] | [7]; [13]

COc1ccc2nc(SCc3ncc(C)c(OC)c3C)[nH]c2c1
inactive: [11] | UISO

CC(=O)N[C@@H](CS)C(=O)O
inactive: [7]; [13] | MKL-2 | UISO

CC(=O)O[C@@H]1CC2C3CCc4cc(OC(=O)c5ccccc5)ccc4C3CCC2(C)[C@H]1OC(C)=O (stereo not given in full)
inactive: [11] | [3] | [4] | [10] | MKL-2

C[C@H]1COc2c(C3(N)CC3)c(F)cc3c(=O)c(C(=O)O)cn1c23
inactive: [3] | [4] | [5] | WaGa

O=C1Nc2cc(Cl)ccc2Oc2ccccc21
inactive: [8] | [1] | [4] | [9]
inconclusive: [5] 27.6 µM [cytotoxic, partial curve, poor fit] | UISO 26.6 µM [inhibitor, partial curve, poor fit]

COc1ccc(S(=O)(=O)Nc2nnc(CC(C)C)s2)cc1
inconclusive: [7]; tumour line A 35.5 µM [inhibitor, partial curve, poor fit] | [7]; tumour line C 16.4 µM [inhibitor, partial curve]
inactive: [11] | [12] | UISO

COc1cc(C(=O)N2CCCCCCC2)cc(OC)c1OC
inactive: [6] | [8] | [1] | [3] | [9] | Es-2 | WaGa

Brc1ccccc1-c1ccccc1
inactive: [3] | MKL-2

OCCOCCN1CCN(C(c2ccccc2)c2ccc(Cl)cc2)CC1 (stereo not given)
inconclusive: [5] 15.5 µM [cytotoxic, partial curve] | [10] 35.5 µM [inhibitor, single point] | WaGa 29.9 µM [inhibitor, single point]
inactive: [1] | [4] | [9]
